Data published in patent US5821230A, “GnRH antagonist decapeptides” (Ferring BV, priority 1997, dated 1998).
Entries after “also recorded” stand apart in the source; their conditions may differ. At least one peptide structure holds a part that was inferred or is arguable (an end, a ring closure or a residue). Some entries repeat one wording, which the source may state once for all of them. Some ranges recur; such a range may be that of the whole group of compounds. *1 amine or outer side, *2 acyl side, *3 side chain or, on linkers, in order; H or OH if unused. Where a SMILES comes first, the peptide text is derived from it. Side-chain parts run from the residue outwards. [ ]: non-standard residue; d: D form. The star is where a group is joined. Dihydroorotyl(S) = O=C1C[C@@H](C(=O)*)NC(=O)N1; dPhe(4-CH2NH2) = NCc1ccc(C[C@@H](N)C(=O)O)cc1; dPhe(4-NH2) = Nc1ccc(C[C@@H](N)C(=O)O)cc1; dPhe(4-Cl) = N[C@H](Cc1ccc(Cl)cc1)C(=O)O; Phe(4-NH2) = Nc1ccc(C[C@H](N)C(=O)O)cc1; X4 = NC(=O)NC[C@@H](N[*:1])C(=O)[*:2]; d2Nal = N[C@H](Cc1ccc2ccccc2c1)C(=O)O; d(hCit) = NC(=O)NCCCC[C@@H](N)C(=O)O; Lys(iPr) = CC(C)NCCCC[C@H](N)C(=O)O; Nicotinoyl = O=C(c1cccnc1)*; dDab = NCC[C@@H](N)C(=O)O; dDap = NC[C@@H](N)C(=O)O; CO = O=C([*:1])[*:2]; NHiPr = CC(C)N*; For = O=C*

Assays:
LH secretion = assay: in vivo suppression of circulating LH levels in castrated male Sprague-Dawley rats treated subcutaneously; design: species or system rat; conditions: for suppression of LH compared with a reference peptide: standard in vivo rat test as in Example 1; for in vivo suppression of LH secretion compared with a reference peptide: dosage not printed at the place
Protocol: The peptide is hereinafter referred to as Peptide No. 1 and is assayed in vivo to determine its effectiveness to suppress secretion of LH in rats. Measurement of circulating LH levels in castrated male Sprague-Dawley rats treated subcutaneously with the peptide is carried out as reported in C. Rivier et al. Biol. Reproduc., 1983. 29, 374-378. The peptides are first dissolved at a concentration of 1.0 or 10 mg/ml in bacteriostatic water and then further diluted in 0.04M phosphate buffer containing 0.1% BSA. Subsequent dilutions are made in phosphate buffer. The peptides are injected sc, and blood samples (300 μl) are collected under metotane anesthesia. Sera (50 […]) are tested for LH levels in duplicate using reagents provided by the National Pituitary and Hormone Distribution Program of the NIDDK. […] However, 96 hours following injection, the LH levels are only about 75% of those of the Acyline-injected rats.

[1] = hydrophilicity by RP-HPLC retention time, TEAP pH 7.0 gradient; format: physicochemical; conditions: RP-HPLC, 40% to 70% Buffer B over 30 minutes, pH 7.0
Protocol: Hydrophilicity is tested by measuring retention time using RP-HPLC with a gradient of 40% Buffer B to 70% Buffer B over 30 minutes, with Buffer A being TEAP pH 7.0 and Buffer B being 70% CH3 CN and 30% Buffer A at pH 7.0.

[2] = dosage of 50 micrograms per rat sc

Row | SMILES | suppression of LH compared with a reference peptide (LH secretion; [2]) | in vivo suppression of LH secretion compared with a reference peptide (LH secretion) | also measured
1 | CC(=O)Nc1ccc(C[C@H](NC(=O)[C@H](CO)NC(=O)[C@@H](CNC(=O)NC(C)C)NC(=O)[C@@H](Cc2ccc(Cl)cc2)NC(=O)[C@@H](Cc2ccc3ccccc3c2)NC(C)=O)C(=O)N[C@H](Cc2ccc(NC(C)=O)cc2)C(=O)N[C@@H](CC(C)C)C(=O)N[C@@H](CCCCNC(C)C)C(=O)N2CCC[C@H]2C(=O)N[C@H](C)C(N)=O)cc1 [Example 2B, Ac-β-D-2Nal-D-4Cpa-D-Dpr(isopropylcarbamoyl)-Ser-4Aph(acetyl)-D-4Aph(acetyl)-Leu-Lys(isopropyl)-Pro-D-Ala-NH2] (Ac-[d2Nal][dPhe(4-Cl)][dDap]([CO-NHiPr])S[Phe(4-NH2)](Ac)[dPhe(4-NH2)](Ac)L[Lys(iPr)]P[dA]-NH2) | about as effective an Acyline for 2 days; also recorded: At 3 days, it is less effective than Acyline for the suppression of LH |  | 
2 | CNC(=O)NCc1ccc(C[C@@H](NC(=O)[C@H](Cc2ccc(NC(=O)[C@@H]3CC(=O)NC(=O)N3)cc2)NC(=O)[C@H](CO)NC(=O)[C@H](CCC(N)=O)NC(=O)[C@@H](Cc2ccc(Cl)cc2)NC(=O)[C@@H](Cc2ccc3ccccc3c2)NC(C)=O)C(=O)N[C@@H](CC(C)C)C(=O)N[C@@H](CCCCNC(C)C)C(=O)N2CCC[C@H]2C(=O)N[C@H](C)C(N)=O)cc1 [Example 8D, Ac-β-D-2Nal-D-4Cpa-Gln-Ser-4Aph(hydroorotyl)-D-4Amf(methylcarbamoyl)- Leu-Lys(isopropyl)-Pro-D-Ala-NH2] (Ac-[d2Nal][dPhe(4-Cl)]QS[Phe(4-NH2)](Dihydroorotyl(S))[dPhe(4-CH2NH2)]([CO-NHMe])L[Lys(iPr)]P[dA]-NH2) | substantially as effective as Acyline for 2 to 3 days |  | hydrophilicity compared with a reference peptide [1]: more hydrophilic than Acyline
3 | CC(=O)Nc1ccc(C[C@H](NC(=O)[C@H](CO)NC(=O)[C@H](CCC(N)=O)NC(=O)[C@@H](Cc2ccc(Cl)cc2)NC(=O)[C@@H](Cc2ccc3ccccc3c2)NC(C)=O)C(=O)N[C@H](Cc2ccc(NC(C)=O)cc2)C(=O)N[C@@H](CC(C)C)C(=O)N[C@@H](CCCCNC(C)C)C(=O)N2CCC[C@H]2C(=O)N[C@H](C)C(N)=O)cc1 [Peptide No. 8, Ac-D-2Nal-D-4Cpa-Gln-Ser-4Aph(Ac)-D-4Aph(Ac)-Leu-ILys-Pro-D-Ala-NH2] (Ac-[d2Nal][dPhe(4-Cl)]QS[Phe(4-NH2)](Ac)[dPhe(4-NH2)](Ac)L[Lys(iPr)]P[dA]-NH2) | about the same duration of bioactivity as Acyline; also recorded: about equal to Acyline over 4 days |  | duration of action, as classed in words (LH secretion; [2]): long-acting
4 | CNC(=O)NC[C@@H](NC(=O)[C@@H](Cc1ccc(Cl)cc1)NC(=O)[C@@H](Cc1ccc2ccccc2c1)NC(C)=O)C(=O)N[C@@H](CO)C(=O)N[C@@H](Cc1ccc(O)cc1)C(=O)N[C@H](CCCCNC(N)=O)C(=O)N[C@@H](CC(C)C)C(=O)N[C@@H](CCCCNC(C)C)C(=O)N1CCC[C@H]1C(=O)N[C@H](C)C(N)=O [Example 3A, Ac-β-D-2Nal-D-4Cpa-D-Dpr(methylcarbamoyl)-Ser-Tyr-D-Hci-Leu-ILys-Pro- D-Ala-NH2] (Ac-[d2Nal][dPhe(4-Cl)][dDap]([CO-NHMe])SY[d(hCit)]L[Lys(iPr)]P[dA]-NH2) |  | substantially the same ability to suppress the in vivo secretion of LH as does Peptide No. 3 | 
5 | CC(=O)Nc1ccc(C[C@H](NC(=O)[C@H](CO)NC(=O)[C@@H](CNC(N)=O)NC(=O)[C@@H](Cc2ccc(Cl)cc2)NC(=O)[C@@H](Cc2ccc3ccccc3c2)NC(C)=O)C(=O)N[C@H](Cc2ccc(NC(C)=O)cc2)C(=O)N[C@@H](CC(C)C)C(=O)N[C@@H](CCCCNC(C)C)C(=O)N2CCC[C@H]2C(=O)N[C@H](C)C(N)=O)cc1 [Peptide No. 2, Ac-β-D-2Nal-D-4Cpa-D-Dpr(carbamoyl)-Ser-4Aph(acetyl)-D-4Aph(acetyl)-Leu-Lys(isopropyl)-Pro-D-Ala-NH2] (Ac-[d2Nal][dPhe(4-Cl)][X4]S[Phe(4-NH2)](Ac)[dPhe(4-NH2)](Ac)L[Lys(iPr)]P[dA]-NH2) | about as effective for the suppression of LH as Peptide No. 1 |  | hydrophilicity compared with a reference peptide [1]: more hydrophilic than Peptide No. 1
6 | CNC(=O)NC[C@@H](NC(=O)[C@@H](Cc1ccc(Cl)cc1)NC(=O)[C@@H](Cc1ccc2ccccc2c1)NC(C)=O)C(=O)N[C@@H](CO)C(=O)N[C@@H](CCCCNC(=O)c1cccnc1)C(=O)N[C@H](CCCCNC(=O)c1cccnc1)C(=O)N[C@@H](CC(C)C)C(=O)N[C@@H](CCCCNC(C)C)C(=O)N1CCC[C@H]1C(=O)N[C@H](C)C(N)=O [Peptide No. 4, Ac-D-2Nal-D-4Cpa-D-Dpr(methylcarbamoyl)-Ser-Lys(Nic)-D-Lys(Nic)-Leu-ILys-Pro-D-Ala-NH2] (Ac-[d2Nal][dPhe(4-Cl)][dDap]([CO-NHMe])SK(Nicotinoyl)[dK](Nicotinoyl)L[Lys(iPr)]P[dA]-NH2) |  | longer duration of in vivo suppression of LH secretion than Antide | 
7 | CNC(=O)NCC[C@@H](NC(=O)[C@@H](Cc1ccc(Cl)cc1)NC(=O)[C@@H](Cc1ccc2ccccc2c1)NC(C)=O)C(=O)N[C@@H](CO)C(=O)N[C@@H](Cc1ccc(NC(=O)[C@@H]2CC(=O)NC(=O)N2)cc1)C(=O)N[C@H](Cc1ccc(NC(C)=O)cc1)C(=O)N[C@@H](CC(C)C)C(=O)N[C@@H](CCCCNC(C)C)C(=O)N1CCC[C@H]1C(=O)N[C@H](C)C(N)=O [Example 5F, Ac-β-D-2Nal-D-4Cpa-D-Dbu(MeCbm)-Ser-4Aph(Hor)-D-4Aph(acetyl)-Leu-Lys(isopropyl)-Pro-D-Ala-NH2] (Ac-[d2Nal][dPhe(4-Cl)][dDab]([CO-NHMe])S[Phe(4-NH2)](Dihydroorotyl(S))[dPhe(4-NH2)](Ac)L[Lys(iPr)]P[dA]-NH2) |  | bioactive in suppressing the secretion of LH | 
8 | CC(=O)Nc1ccc(C[C@H](NC(=O)[C@H](CO)NC(=O)[C@@H](CCC(N)=O)NC(=O)[C@@H](Cc2ccc(Cl)cc2)NC(=O)[C@@H](Cc2ccc3ccccc3c2)NC(C)=O)C(=O)N[C@H](Cc2ccc(NC(C)=O)cc2)C(=O)N[C@@H](CC(C)C)C(=O)N[C@@H](CCCCNC(C)C)C(=O)N2CCC[C@H]2C(=O)N[C@H](C)C(N)=O)cc1 [Peptide No. 7, Ac-D-2Nal-D-4Cpa-D-Gln-Ser-4Aph(Ac)-D-4Aph(Ac)-Leu-ILys-Pro-D-Ala-NH2] (Ac-[d2Nal][dPhe(4-Cl)][dQ]S[Phe(4-NH2)](Ac)[dPhe(4-NH2)](Ac)L[Lys(iPr)]P[dA]-NH2) | about the same duration of bioactivity as Acyline over 3 days |  | 
9 | CNC(=O)NC[C@@H](NC(=O)[C@@H](Cc1ccc(Cl)cc1)NC(=O)[C@@H](Cc1ccc2ccccc2c1)NC(C)=O)C(=O)N[C@@H](CO)C(=O)N[C@@H](Cc1ccc(NC=O)cc1)C(=O)N[C@H](Cc1ccc(NC=O)cc1)C(=O)N[C@@H](CC(C)C)C(=O)N[C@@H](CCCCNC(C)C)C(=O)N1CCC[C@H]1C(=O)N[C@H](C)C(N)=O [Peptide No. 5C, Ac-D-2Nal-D-4Cpa-D-Dpr(methylcarbamoyl)-Ser-4Aph(For)-D-4Aph(For)-Leu-ILys-Pro-D-Ala-NH2] (Ac-[d2Nal][dPhe(4-Cl)][dDap]([CO-NHMe])S[Phe(4-NH2)](For)[dPhe(4-NH2)](For)L[Lys(iPr)]P[dA]-NH2) |  | longer duration of in vivo suppression of LH secretion than Antide | 
